According to US20240376128A1, “N-CYCLOPROPYLPYRIDO [4, 3-D] PYRIMIDIN-4-AMINE DERIVATIVES AND USES THEREOF” (Jacobio Pharmaceuticals Co., Ltd., priority 2021, published 2024):

Tests used:
[1] = target: T1, K-Ras G12R (Homo sapiens, UniProt P01116, G12R); assay: SOS1 catalyzed nucleotide exchange assay (GDP form K-Ras), TR-FRET; settings: read-out: Biochemical assays, IC50, K-Ras G12R GDP
Protocol: (§1) The parameters were F486: Excitation 340 nm, Emission 486 nm, Lag time 100 pas, Integration time 200 pas; F515: Excitation 340 nm, Emission 515 nm, Lag time 100 pas, Integration time 200 pas. TR-FRET ratios for each individual wells were calculated by equation: TR-FRET ratio=(Signal F515/Signal F486)*10000.

[2] = target: T2, K-Ras G12C (Homo sapiens, UniProt P01116, G12C); assay: as above; settings: read-out: Biochemical assays, IC50, K-Ras G12C GDP
Protocol: as §1

[3] = target: T3, K-Ras G12A (Homo sapiens, UniProt P01116, G12A); assay: as above; settings: read-out: Biochemical assays, IC50, K-Ras G12A GDP
Protocol: as §1

[4] = target: T4, K-Ras G12V (Homo sapiens, UniProt P01116, G12V); assay: as above; settings: read-out: Biochemical assays, IC50, K-Ras G12V GDP
Protocol: as §1

[5] = target: T5, K-Ras Q61H (Homo sapiens, UniProt P01116, Q61H); assay: as above; settings: read-out: Biochemical assays, IC50, K-Ras Q61H GDP
Protocol: as §1

[6] = target: T6, K-Ras WT (Homo sapiens, UniProt P01116); assay: as above; settings: read-out: Biochemical assays, IC50, K-Ras WT GDP
Protocol: as §1

[7] = target: T7, K-Ras G13D (Homo sapiens, UniProt P01116, G13D); assay: Nucleotide exchange assay (GDP form K-Ras, no SOS1 added), TR-FRET; settings: read-out: Biochemical assays, IC50, K-Ras G13D GDP
Protocol: as §1

[8] = target: T1, K-Ras G12R; assay: GTP-K-Ras (GppNp-K-Ras) and cRAF interaction assay, HTRF; settings: read-out: Biochemical assays, IC50, K-Ras G12R GppNp
Source text: (§2) GppNp is an analog of GTP.

[9] = target: T2, K-Ras G12C; assay: as above; settings: read-out: Biochemical assays, IC50, K-Ras G12C GppNp
Source text: as §2

[10] = target: K-Ras G12D (Homo sapiens, UniProt P01116, G12D); assay: as above; settings: read-out: Biochemical assays, IC50, K-Ras G12D GppNp
Source text: as §2

[11] = target: T3, K-Ras G12A; assay: as above; settings: read-out: Biochemical assays, IC50, K-Ras G12A GppNp
Source text: as §2

[12] = target: T7, K-Ras G13D; assay: as above; settings: read-out: Biochemical assays, IC50, K-Ras G13D GppNp
Source text: as §2

[13] = target: T4, K-Ras G12V; assay: as above; settings: read-out: Biochemical assays, IC50, K-Ras G12V GppNp
Source text: as §2

[14] = target: T5, K-Ras Q61H; assay: as above; settings: read-out: Biochemical assays, IC50, K-Ras Q61H GppNp
Source text: as §2

[15] = target: T6, K-Ras WT; assay: as above; settings: read-out: Biochemical assays, IC50, K-Ras WT GppNp
Source text: as §2

| Structure (SMILES) | IC50 [1] | IC50 [2] | IC50 [3] | IC50 [4] | IC50 [5] | IC50 [6] | IC50 [7] | IC50 [8] | IC50 [9] | IC50 [10] | IC50 [11] | IC50 [12] | IC50 [13] | IC50 [14] | IC50 [15] |
| --- | --- | --- | --- | --- | --- | --- | --- | --- | --- | --- | --- | --- | --- | --- | --- |
| C#Cc1c(F)ccc2cc(O)cc(-c3ncc4c(N(C)[C@@H]5C[C@H]5F)nc(OC[C@@]56CCCN5C[C@H](F)C6)nc4c3F)c12.O=C(O)C(F)(F)F (single isomer, unassigned) [Compound 3] | 0.00325 µM | 0.00321 µM | 0.00383 µM | 0.00277 µM | 0.00242 µM | 0.0024 µM | 0.00498 µM | 0.0303 µM | 0.283 µM | 0.0283 µM | 0.272 µM | 0.00697 µM | 0.0779 µM | 0.0453 µM | 0.112 µM |
| C#Cc1c(F)ccc2cc(O)cc(-c3ncc4c(N(C)[C@@H]5C[C@H]5F)nc(OC[C@@]56CCCN5C[C@H](OC)C6)nc4c3F)c12 (mixture of isomers) [Compound 5, 5-ethynyl-6-fluoro-4-(8-fluoro-4-((trans-2-fluorocyclopropyl)(methyl)amino)-2-(((2R,7aS)-2-methoxytetrahydro-1H-pyrrolizin-7a(5H)-yl)methoxy)pyrido[4,3-d]pyrimidin-7-yl)naphthalen-2-ol] | 0.00339 µM | – | – | 0.00323 µM | 0.00162 µM | – | – | 0.0903 µM | – | 0.0652 µM | 0.645 µM | – | 0.145 µM | 0.137 µM | – |
